In all, about 390,000 compounds went through this assay and about 930 (0.24%) were called active. Inconclusive means that the source gave no clear call. Such entries were picked first, then a sample of the others. Calls come from the whole dose curve; as a rule, active = well fitted activation curve with a large enough effect; inconclusive = small, poorly fitted or top-dose-only effect; inactive = no such curve, though single readings can be large or run the other way. A potency beside an inconclusive call is a rough fit, not a confirmed value.
Assay: qHTS for Suppressors of FUS Proteinopathy: Primary screen using FUS-linked yeast assay; note: nearly all actives have a fitted effect of over 55% in size;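 for growth rescue (activation): plate controls were DMSO vehicle for no effect and reference control for full effect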
Details: S. cerevisiae FUS-expressing, OD600, 24 h; Potency: growth rescue; growth rescue (activation): at 76.6 µM (top of the series)
How it was run: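 Toxicity suppression screen in FUS-yeast. Cells induced with 2% galactose, starting OD 0.005, treated 24hr at 30C with compounds at multiple final concentrations; growth by OD600.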
Potency is the fitted concentration of half-maximal effect; tags give direction and shape of the fitted curve.

**Q.** With `O=C1CCCC2=C1C(c1ccc(O)c(Br)c1)C1=C(CCCC1=O)N2c1ccccc1` as the compound, how does the Potency read?
**A.** inconclusive: 39.8 µM [activator, partial curve, poor fit]

**Q.** With `O=C(NCC1CCCO1)c1cnn2c(C(F)F)cc(C3CC3)nc12` (stereo unspecified) as the compound, how does the Potency read?
**A.** inactive

**Q.** For `Cc1ccc(S(=O)(=O)N2CCCN(C(=O)c3cc4ccccc4[nH]3)CC2)cc1`, which Potency is on record?
**A.** inconclusive: 25.1 µM [activator, single point]

**Q.** For `O=C(O)CCSc1nc2ccccc2n1-c1ccccc1`, which Potency is on record?
**A.** inactive

**Q.** For `COC(=O)c1c(-c2cccnc2)csc1NC(=O)c1ccc2c(c1)OCO2`, which Potency is on record?
**A.** inactive

**Q.** Which Potency does the source give for `CCN(CC)c1ccc(/C=N/NC(=O)c2ccc3c(c2)OCCO3)cc1` here?
**A.** inconclusive: 22.4 µM [activator, partial curve]

**Q.** For `C=C1C2(C(=O)Nc3nccs3)CCC(C2)C1(C)C` (stereo unspecified), which Potency is on record?
**A.** inactive

**Q.** Which Potency does the source give for `N#CC1=C(N2CCCCC2)c2cc3c(n2C1=O)CCCC3` here?
**A.** inactive

**Q.** With `CC1(C(=O)Nc2ccc(Cl)c(Cl)c2)CCN1C(=O)Cc1cccc2ccccc12` (stereo unspecified) as the compound, how does the Potency read?
**A.** inconclusive: 31.6 µM [activator, single point]

**Q.** For `COc1ccc(N2CCN(C(=O)CSc3nc4[nH]ncc4c(=O)n3-c3ccc(Br)cc3)CC2)cc1`, which Potency is on record?
**A.** inconclusive: 20 µM [activator, single point]

**Q.** With `O=S(=O)(Nc1cccc(-c2ccc(N3CCCCCC3)nn2)c1)c1ccc(F)cc1` as the compound, how does the Potency read?
**A.** inconclusive: 39.8 µM [activator, single point]

**Q.** For `COc1ccc(C#Cc2ccc3c(c2)O[C@H](CN(C)S(=O)(=O)c2ccccc2F)[C@H](C)CN([C@H](C)CO)S3(=O)=O)cc1`, which Potency is on record?
**A.** active: 28.2 µM

**Q.** For `COc1ccc(NC(=O)CCCn2c(=O)c3cccn3c3ccccc32)c(OC)c1`, which Potency is on record?
**A.** inconclusive: 17.8 µM [activator, single point]

**Q.** With `O=C(Oc1cccc(C(=S)N2CCOCC2)c1)c1ccc([N+](=O)[O-])cc1[N+](=O)[O-]` as the compound, how does the Potency read?
**A.** inactive

**Q.** For `CC(=O)c1sc2nc(C)c3c(c2c1N)CCCC3`, which Potency is on record?
**A.** inactive

**Q.** Which Potency does the source give for `COCCNCCOCCOc1ccc(Cl)c(C)c1` here?
**A.** inactive

**Q.** With `COC(=O)[C@@]12C[C@@H](CC(=O)NCCCN3CCCC3=O)C(=O)N(Cc3ccc4c(c3)OCO4)C1=CCC(C)(C)C2` as the compound, how does the Potency read?
**A.** inconclusive: 22.4 µM [activator, partial curve, poor fit]

**Q.** For `C1=C(c2sc3ccccc3c2-c2ccc(OCCN3CCOCC3)cc2)CCCC1`, which Potency is on record?
**A.** inconclusive: 50.1 µM [activator, single point]

**Q.** For `CCC1(C(=O)c2ccccc2)C2c3cc(Br)ccc3OC(=O)C21C(=O)N1CCOCC1` (stereo unspecified), which Potency is on record?
**A.** inconclusive: 31.6 µM [activator, single point]

**Q.** With `Cc1ccc(C)c(N2CCN(C(=O)Nc3ccc4c(c3)N(C)C(=O)CS4)CC2)c1` as the compound, how does the Potency read?
**A.** inconclusive: 25.1 µM [activator, single point]

**Q.** For `COc1cccc(CNC(=O)CN2C(=O)CSc3c2c(C)nn3-c2ccccc2)c1OC`, which Potency is on record?
**A.** inconclusive: 25.1 µM [activator, single point]

**Q.** For `CC1(C)CC(=O)N(CC(=O)N2CCN(c3cccc(Cl)c3Cl)CC2)c2ccccc2S1(=O)=O`, which Potency is on record?
**A.** inactive

**Q.** With `CCOC(=O)c1cccc(NC(=O)Cn2c(CC(=O)NC)nc3ccccc32)c1` as the compound, how does the Potency read?
**A.** inconclusive: 39.8 µM [activator, single point]

**Q.** With `Oc1c(C(c2ccccn2)N2CCC(Cc3ccccc3)CC2)cc(Cl)c2cccnc12` (stereo unspecified) as the compound, how does the Potency read?
**A.** active: 25.1 µM

**Q.** For `CCOc1ccc(C(=O)Nc2cccc(-n3cnnn3)c2)cc1OCC`, which Potency is on record?
**A.** inconclusive: 31.6 µM [activator, single point]

**Q.** With `COc1ccc(-c2c(C)nn3c(N4CCC5(CC4)OCCO5)cc(C)nc23)cc1OC` as the compound, how does the Potency read?
**A.** inconclusive: 5.62 µM [activator, partial curve, poor fit]

**Q.** Which Potency does the source give for `COc1ccc(Br)cc1/C=C/C(=O)Nc1ccc(C)cc1` here?
**A.** inactive

**Q.** For `Cc1ccsc1/C=N/NC(=O)Cc1cc(=O)[nH][nH]1`, which Potency is on record?
**A.** inconclusive: 50.1 µM [activator, single point]

**Q.** For `CCc1ccc(/C=C/C(=O)C2C(=O)c3ccccc3C2=O)cc1`, which Potency is on record?
**A.** inconclusive: 17.8 µM [activator, partial curve]

**Q.** For `CCOC(=O)CN1C(=O)C(Sc2n[nH]c(-c3cccc(C)c3)n2)CCc2ccccc21` (stereo unspecified), which Potency is on record?
**A.** inconclusive: 25.1 µM [activator, single point]

**Q.** For `CCOC(=O)C1CCCN(S(=O)(=O)c2ccc(N3CCCCS3(=O)=O)cc2)C1` (stereo unspecified), which Potency is on record?
**A.** inactive

**Q.** With `CC1CCc2noc(NC(=O)c3ccccc3[N+](=O)[O-])c2C1` (stereo unspecified) as the compound, how does the Potency read?
**A.** inconclusive: 50.1 µM [activator, single point]

**Q.** With `Cc1cc(N2C(=O)C(O)=C(C(=O)c3ccco3)C2c2cccc(Oc3ccccc3)c2)no1` (stereo unspecified) as the compound, how does the Potency read?
**A.** inconclusive: 12.6 µM [activator, partial curve, poor fit]

**Q.** Which Potency does the source give for `Cc1ccc(-n2nnc(-c3nsc(NC(=O)c4ccccc4)n3)c2C)cc1` here?
**A.** inactive

**Q.** For `CCCc1cc(C(=O)N(C)CC(=O)Nc2ccc(OCC)c(OCC)c2)sc1C`, which Potency is on record?
**A.** inconclusive: 35.5 µM [activator, partial curve]

**Q.** With `COc1cc(N(C(=O)Cc2cccs2)C(C(=O)NC2CCCCC2)c2ccc(C)cc2)ccc1-n1cnnn1` (stereo unspecified) as the compound, how does the Potency read?
**A.** inactive

**Q.** For `Cc1nnc2c(N3CCN(c4ccccc4F)CC3)nc3ccccc3n12`, which Potency is on record?
**A.** inactive

**Q.** With `COC(=O)[C@@]12C[C@@H](CC(=O)NCC34CC5CC(CC(C5)C3)C4)C(=O)N(Cc3cccc4ccccc34)C1=CCC(C)(C)C2` as the compound, how does the Potency read?
**A.** inconclusive: 20 µM [activator, single point]

**Q.** With `Cc1ccc(CC(=O)N(C)CC(=O)Nc2ccc(N3CCOCC3)cc2)cc1C` as the compound, how does the Potency read?
**A.** inconclusive: 50.1 µM [activator, single point]

**Q.** With `CCOC(=O)c1cc(-c2ccc(C)cc2)n(CCC(=O)Nc2nc3c(C)cccc3s2)c1C` as the compound, how does the Potency read?
**A.** inactive

**Q.** Which Potency does the source give for `COC(=O)[C@@]1(C(C)C)N=C(c2cc(OC)c(OC)c(OC)c2)[C@]2(O1)C(=O)N(Cc1cn(Cc3ccccc3)nn1)c1ccc(F)cc12` here?
**A.** inconclusive: 7.08 µM [activator, partial curve]

**Q.** Which Potency does the source give for `COc1ccccc1N1CCN(C(=O)C2CCN(S(=O)(=O)c3c(C)noc3/C=C/c3ccc(C)cc3)CC2)CC1` here?
**A.** inconclusive: 50.1 µM [activator, single point]

**Q.** With `COc1cccc(Cn2c(=O)n(CC3CCC(C(=O)N4CCCCC4)CC3)c(=O)c3sccc32)c1` (stereo unspecified) as the compound, how does the Potency read?
**A.** active: 20 µM

**Q.** With `Cc1c(CC(=O)N2CCN(C(=O)C3COc4ccccc4O3)CC2)c(=O)oc2cc(O)c(Cl)cc12` (stereo unspecified) as the compound, how does the Potency read?
**A.** inconclusive: 28.2 µM [activator, partial curve, poor fit]

**Q.** With `CCOc1ccc(NC(=S)N(CCc2c(C)[nH]c3ccc(C)cc23)Cc2ccncc2)cc1` as the compound, how does the Potency read?
**A.** inconclusive: 22.4 µM [activator, partial curve]

**Q.** For `CCC(CC)c1nnc(NC(=O)c2c(C)nn(Cc3ccccc3Cl)c2C)s1`, which Potency is on record?
**A.** active: 8.91 µM

**Q.** For `O=C(CSc1nnc(-c2cccnc2)n1-c1ccccc1)Nc1ccc(OCc2ccccc2)cc1`, which Potency is on record?
**A.** inconclusive: 25.1 µM [activator, partial curve, poor fit]

**Q.** For `Cc1ccc(C)n1NC(=O)c1cccs1`, which Potency is on record?
**A.** inconclusive: 20 µM [activator, partial curve]

**Q.** Which Potency does the source give for `O=C1C=C(c2ccccc2C(F)(F)F)C[C@@H](c2ccc3c(c2)OCO3)C1` here?
**A.** inactive

**Q.** For `Cc1ccc(C)c(N2CCN(C(=O)Nc3cn(CC(C)C)c(=O)c4ccccc34)CC2)c1`, which Potency is on record?
**A.** inconclusive: 44.7 µM [activator, single point]

**Q.** For `O=C(c1ccccc1Br)N(Cc1ccco1)C1CCS(=O)(=O)C1` (stereo unspecified), which Potency is on record?
**A.** inactive

**Q.** Which growth rescue (activation) does the source give for `O=C(O)C1C2C=CC(O2)C1C(=O)Nc1ccc(S(=O)(=O)N2CCc3ccccc32)cc1` (stereo unspecified) here?
**A.** inconclusive: 61.5% [activator]

**Q.** With `CCc1nnc(NC(=O)c2ccc(S(=O)(=O)N(CC)Cc3ccccc3)cc2)o1` as the compound, how does the Potency read?
**A.** inactive

**Q.** With `Cc1ccc(S(=O)(=O)N(C)C[C@H]2Oc3cc(C#CC4CCCC4)ccc3S(=O)(=O)N([C@H](C)CO)C[C@H]2C)cc1` as the compound, how does the Potency read?
**A.** inconclusive: 31.6 µM [activator, single point]

**Q.** Which Potency does the source give for `CCN(CC)S(=O)(=O)c1cccc(-c2nnc(SC(C)C(=O)NCCC3=CCCCC3)o2)c1` (stereo unspecified) here?
**A.** inconclusive: 17.8 µM [activator, partial curve, poor fit]

**Q.** With `NC(=O)[C@@H]1CCCN1Cc1c(C(=O)N2CCN(C3CCCCC3)CC2)nc2ccccn12` as the compound, how does the Potency read?
**A.** inactive

**Q.** Which Potency does the source give for `Fc1ccc(-[n+]2nc(Nc3ccccc3)sc2-c2c(Cl)cccc2Cl)cc1` here?
**A.** inactive

**Q.** Which Potency does the source give for `COC1=CC(=O)OC(c2cccc(Cl)c2)C1` (stereo unspecified) here?
**A.** inactive

**Q.** Which Potency does the source give for `Cc1cc(-c2nnc(SCC(=O)N3C(C)CCCC3C)o2)no1` (stereo unspecified) here?
**A.** inactive

**Q.** Which Potency does the source give for `CCS(=O)(=O)N1N=C(c2cccs2)CC1c1cc2cc(C)ccc2nc1Cl` (stereo unspecified) here?
**A.** inconclusive: 50.1 µM [activator, single point]

**Q.** Which Potency does the source give for `Cc1ccc(C(=O)N/N=C/c2cc(C)n(-c3ccc(Br)cc3)c2C)cc1[N+](=O)[O-]` here?
**A.** inconclusive: 25.1 µM [activator, partial curve, poor fit]

**Q.** For `O=C(CN1CCN(CC(=O)Nc2ccc(OCc3ccccc3)cc2)CC1)Nc1ccc(F)cc1`, which Potency is on record?
**A.** inconclusive: 50.1 µM [activator, single point]

**Q.** With `COCCN=C1NN=C(c2cc(C)n(CC3CCCO3)c2C)CS1` (stereo unspecified) as the compound, how does the Potency read?
**A.** active: 35.5 µM

**Q.** For `Cc1cc2c3nonc3ccc2n1-c1ccccc1`, which growth rescue (activation) is on record?
**A.** inconclusive: 90% [activator]

**Q.** Which Potency does the source give for `CC(C(=O)NCc1ccccc1Cl)n1ccc2cc(S(=O)(=O)N3CCCCC3)ccc21` (stereo unspecified) here?
**A.** inconclusive: 31.6 µM [activator, single point]

**Q.** For `CCN1C(=O)[C@H]2[C@@H](c3ccc(C)cc3)N3C(=O)N(c4ccc(C)cc4)C(=O)[C@@]3(Cc3ccccc3)[C@H]2C1=O`, which Potency is on record?
**A.** inconclusive: 25.1 µM [activator, single point]

From PubChem BioAssay AID1347120 (National Center for Advancing Translational Sciences (NCATS), 2019)
